In the test the test system is MIWI (PIWIL1) piRISC loaded with piRNA #1 (30 nt). As to the kind of experiment: pre-steady-state target cleavage rate (min^-1); MIWI and MILI are mouse PIWI proteins and EfPiwi is from a freshwater sponge; tags in brackets are library labels; higher = faster piRNA-guided slicing of the target. The note with it: guide: piRNA #1 5'p-UGAGGUAGUAGGUUGUAUAGUAUCCAGAGG; auxiliary factor: 500 nM mouse GTSF1. In outline:
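The pre-steady-state cleavage rate was obtained by Cleave-'n-Seq with a burst-and-steady-state fit. A transcribed, DNA-blocked target RNA library (0.1 nM) was mixed with 1 nM active affinity-purified piRISC carrying one synthetic guide, with or without 500 nM GTSF1 partner protein, in HEPES–potassium acetate buffer at 33 °C for 0–8 or 0–960 min. Uncleaved targets were sequenced and normalised to depth and to weakly complementary targets, with three trials pooled and k3 capped at 0.0001 min^-1.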

± gives the standard deviation. Only a part is listed here, and it is no random draw.

Turning to GCUGUGGAUACUAUACAACCUAGUACCUCA, the “pre-steady-state target cleavage rate” value was 0.439 ± 0.068.
The figure for GGAGACGAAACUAUACAACCUACUUCCUCA is 0.25 ± 0.048; for GGUCUGGUUACUAUACAACCUACUUCCUCA it is 0.0468 ± 0.014; for GCUCAGGAUACUAUACAACCUACUUCCUCA it is 0.776 ± 0.048.
CCUCUGUAUACUAUACAACCUACUACCUCA: the “pre-steady-state target cleavage rate” value was found to be 1.83 ± 0.097.
For GGAGACCUUACUAUACUACGUACUACCUCA, the “pre-steady-state target cleavage rate” value came to 0.0392 ± 0.0094.
The figure for GGAGAGGAUACUAUACAACCUGACUACCUCA is 0.00377 ± 0.0021; for GGAGACCUAUGAUAUCAAGCAACUACCUCA it is under 0.0001.
In the case of GGUCUGGAUACUAAACAACCUUCUACCUCA, the “pre-steady-state target cleavage rate” value was 0.677 ± 0.037.
For CCUCUGGAUACUAUACAACCUACUUCCUCA, the “pre-steady-state target cleavage rate” value is 0.668 ± 0.053.
The figure for GGACUGGAUACUUUACAACGUACUACCUCA is 0.94 ± 0.09; for GGAGACCAUACUAUACAACCUUCUACGUCA it is 0.309 ± 0.039.
With GGAGACCUUACUUUACAACCUACUACCUCA, the “pre-steady-state target cleavage rate” value is 1.02 ± 0.086.
GCUCUGGAUACUAUACAUCCUACUACGUCA: the “pre-steady-state target cleavage rate” value amounted to 0.929 ± 0.066.
The figure for GGAGACCUAUGAUAUGUUCCUCACUACCUCA is 0.00272 ± 0.0015; for GGAGUGGAUACUUAACAACCUACUACCUCA it is 1.01 ± 0.093.
The figure for GGAGACCUAUGAUAACAACCUACUAGCUGA is under 0.0001; for GGAGACCUAACUAAACAACCUACUACGUCA it is 0.33 ± 0.11; for GGUCUGCAUAGUAUACAACCUACUACCUCA it is 1.6 ± 0.14.
The figure for GGAGUCGAUACUAUACUACCUACUACCUCA is 1.17 ± 0.085; for GGAGACGAUACUAUACAACUACUACCUCA it is 0.465 ± 0.027.
With GGAGACCUAACUAUACAACCUACUACGACA, the “pre-steady-state target cleavage rate” value came out at 0.379 ± 0.065.
As to GGAGUGGAUACUAUACAACCUACAACCUCA, the “pre-steady-state target cleavage rate” value was 0.314 ± 0.037.
In the case of GGACUGCAUACUAUACAACCUACUACCUGA, the “pre-steady-state target cleavage rate” value is 0.496 ± 0.1.

The values above are taken from the supplement of paper PMC10338343.
